According to publication PMC4336329 (PLoS ONE, 2015):
In all, about 310,000 compounds went through this assay and about 14,000 (4.5%) showed an effect of 50% or more. Effects have a minus sign here. Some of the results follow.
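Further: peak tail current of the secondary pulse compared with the same well before compound.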

Each compound was assayed against human ether-à-go-go-related gene (hERG) potassium channel (human, UniProt Q12809) (assay: primary screen, population patch clamp on CHO cells stably expressing hERG).
human ether-à-go-go-related gene (hERG) potassium channel, sequence (Q12809 whole entry, looked up): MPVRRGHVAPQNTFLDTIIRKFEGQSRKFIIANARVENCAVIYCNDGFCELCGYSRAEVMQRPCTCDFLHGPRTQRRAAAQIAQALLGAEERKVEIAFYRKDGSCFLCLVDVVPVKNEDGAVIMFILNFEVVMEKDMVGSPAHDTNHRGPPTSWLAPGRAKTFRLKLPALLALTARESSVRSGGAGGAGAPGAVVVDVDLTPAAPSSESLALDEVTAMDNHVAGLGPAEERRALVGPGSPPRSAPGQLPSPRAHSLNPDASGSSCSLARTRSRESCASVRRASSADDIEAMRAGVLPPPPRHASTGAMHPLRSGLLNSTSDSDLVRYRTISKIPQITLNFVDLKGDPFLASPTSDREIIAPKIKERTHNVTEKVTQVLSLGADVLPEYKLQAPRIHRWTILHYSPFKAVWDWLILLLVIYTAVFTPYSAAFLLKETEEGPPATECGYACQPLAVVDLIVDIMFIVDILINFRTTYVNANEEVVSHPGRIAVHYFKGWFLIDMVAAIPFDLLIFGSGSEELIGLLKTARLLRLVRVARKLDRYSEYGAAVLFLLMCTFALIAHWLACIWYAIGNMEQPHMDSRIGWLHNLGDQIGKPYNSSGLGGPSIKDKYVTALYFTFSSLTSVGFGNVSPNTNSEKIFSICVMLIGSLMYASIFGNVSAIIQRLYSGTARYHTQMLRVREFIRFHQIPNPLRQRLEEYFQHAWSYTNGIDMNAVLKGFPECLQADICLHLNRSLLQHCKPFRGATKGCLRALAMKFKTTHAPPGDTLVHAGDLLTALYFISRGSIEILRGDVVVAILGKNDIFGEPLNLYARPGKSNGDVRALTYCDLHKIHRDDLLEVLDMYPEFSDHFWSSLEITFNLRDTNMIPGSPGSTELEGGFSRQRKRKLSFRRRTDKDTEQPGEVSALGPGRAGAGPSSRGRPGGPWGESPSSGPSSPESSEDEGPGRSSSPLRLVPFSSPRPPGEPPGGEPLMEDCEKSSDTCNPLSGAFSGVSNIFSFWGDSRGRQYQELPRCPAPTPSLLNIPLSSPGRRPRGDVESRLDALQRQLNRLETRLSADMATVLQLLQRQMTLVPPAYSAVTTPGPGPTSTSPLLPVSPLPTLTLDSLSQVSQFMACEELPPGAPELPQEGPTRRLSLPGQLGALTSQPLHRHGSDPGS
With `Cc1ccc(NC(=O)CSc2nnc(C3COc4ccccc4O3)o2)c(Cl)c1` (centres unmarked) the “hERG current change (%, negative = inhibition) at 10uM” value was 12.5%.
For `COc1ccccc1CNC(=O)C1=CCN(S(=O)(=O)c2ccc(C)cc2)CC1`, the “hERG current change (%, negative = inhibition) at 10uM” value was -28.4%.
`COc1ccc(NC(=O)CSc2nnc(-c3cccc(O)c3)o2)cc1` was tested, and the “hERG current change (%, negative = inhibition) at 10uM” value was 19.2%.
In the case of `C=CCOC(=O)C1=C(C)N=c2s/c(=C3\C(=O)N(CC(=O)O)c4ccccc43)c(=O)n2C1c1ccc(OC)cc1.CC(=O)O` (centres unmarked), the “hERG current change (%, negative = inhibition) at 10uM” value is reported as 10.4%.
For `O=C(N/N=C/c1ccc(N2CCOCC2)c([N+](=O)[O-])c1)c1ccc(F)cc1`, the “hERG current change (%, negative = inhibition) at 10uM” value was -15.9%.
In the case of `COc1cc(NC(=O)c2ccc([N+](=O)[O-])cc2)c(OC)cc1NC(=O)CC(C)C`, the “hERG current change (%, negative = inhibition) at 10uM” value is reported as 21%.
With `COc1cc(NC(=O)CN(C)S(=O)(=O)c2ccc3c(c2)CCC(=O)N3)cc(OC)c1` the “hERG current change (%, negative = inhibition) at 10uM” value was -23.9%.
`O=C(Nc1ccc(C(F)(F)F)cc1)c1cc(S(=O)(=O)NCC2COc3ccccc3O2)ccc1F` (centres unmarked) was tested, and the “hERG current change (%, negative = inhibition) at 10uM” value was -3.83%.
`COC(=O)N/N=C/c1cc(Br)ccc1O` was tested, and the “hERG current change (%, negative = inhibition) at 10uM” value was 5.22%.
In the case of `O=C(O)c1ccccc1Sc1ncnc2sccc12`, the “hERG current change (%, negative = inhibition) at 10uM” value is reported as 9.7%.
With `CCOc1cc(C2NC(=O)CCC2[N+](=O)[O-])cc(Br)c1OC` (centres unmarked) the “hERG current change (%, negative = inhibition) at 10uM” value was 0.144%.
`CN(Cc1ccncn1)C(=O)CC1C(=O)NCCN1Cc1cccc(Oc2ccccc2)c1` (centres unmarked) was tested, and the “hERG current change (%, negative = inhibition) at 10uM” value was 10.2%.
For `O=C1C2C3C=CC(C2C(=O)N1C1CCCCC1)C1C2C(=O)N(C4CCCCC4)C(=O)C2C31` (centres unmarked), the “hERG current change (%, negative = inhibition) at 10uM” value was -9.75%.
For `COc1cccc(-c2nn(C)c3sc(C(=O)N4CCOCC4)cc23)c1`, the “hERG current change (%, negative = inhibition) at 10uM” value was -6.02%.
In the case of `N#Cc1sc2nc(-c3cccs3)cc(-c3ccc(Cl)cc3)c2c1N`, the “hERG current change (%, negative = inhibition) at 10uM” value is reported as -2.05%.
In the case of `CCCc1nnc(NC(=O)CCC(=O)N2CCN(c3ccccc3)CC2)s1`, the “hERG current change (%, negative = inhibition) at 10uM” value is reported as -26.7%.
`COc1cc(C(N)=O)cc(Cl)c1OC` was tested, and the “hERG current change (%, negative = inhibition) at 10uM” value was 45.2%.
With `C[C@@H](C(=O)Nc1ccc2ccccc2c1)[C@H]1C[C@]1(C)[C@H](NC(=O)c1cccnc1)c1ccccc1` the “hERG current change (%, negative = inhibition) at 10uM” value was -12.9%.
In the case of `N=c1c2c(ncn1Cc1ccco1)Oc1ccc3ccccc3c1C2c1ccccc1` (centres unmarked), the “hERG current change (%, negative = inhibition) at 10uM” value is reported as -6.08%.
For `CCc1c(C)sc(NC(=O)c2cccs2)c1C(=O)OC(C)C`, the “hERG current change (%, negative = inhibition) at 10uM” value was 2.8%.
For `COc1cccc(C(=O)N(C)C(C)c2nc3ccccc3s2)c1` (centres unmarked), the “hERG current change (%, negative = inhibition) at 10uM” value was -3.31%.
With `Cc1cc(C)c2cccc(N)c2n1` the “hERG current change (%, negative = inhibition) at 10uM” value was 20.7%.
With `CCCCNS(=O)(=O)c1ccc2nc(-c3cccnc3)cc(C(=O)NCCCN(CC)CC)c2c1` the “hERG current change (%, negative = inhibition) at 10uM” value was -7.3%.
With `O=C(COC(=O)c1ccc(Cl)c(S(=O)(=O)N2CCOCC2)c1)Nc1ccc2[nH]c(=O)[nH]c2c1` the “hERG current change (%, negative = inhibition) at 10uM” value was 5.41%.
With `COC(=O)C1(C)NC(c2cccs2)C2C(=O)N(c3ccc(F)cc3)C(=O)C21` (centres unmarked) the “hERG current change (%, negative = inhibition) at 10uM” value was 19%.
For `O=C1CC(NCc2ccccc2F)C(=O)N1c1ccccc1` (centres unmarked), the “hERG current change (%, negative = inhibition) at 10uM” value was 4.69%.
`c1ccc(-c2ccc(-c3ccncn3)cc2)cc1` was tested, and the “hERG current change (%, negative = inhibition) at 10uM” value was 23.6%.
In the case of `CCn1c(Cc2c(C)[nH]c3ccccc23)n[nH]c1=S`, the “hERG current change (%, negative = inhibition) at 10uM” value is reported as -17.8%.
In the case of `Cc1ccc(C(=O)NCC(=O)OCCCn2c(=O)[nH]c3ccccc32)cc1`, the “hERG current change (%, negative = inhibition) at 10uM” value is reported as -14.8%.
With `Br.CCn1c(=N)n(CC(=O)c2ccc(Cl)c(Cl)c2)c2ccccc21` the “hERG current change (%, negative = inhibition) at 10uM” value was -51.4%.
With `O=C(Oc1ccc(Cl)cc1N1C(=O)CCC1=O)c1ccco1` the “hERG current change (%, negative = inhibition) at 10uM” value was 7.9%.
`Cc1ccc(NS(=O)(=O)c2ccc(C(=O)OCC(=O)N3CCCCC3)cc2)cc1` was tested, and the “hERG current change (%, negative = inhibition) at 10uM” value was -28.4%.
In the case of `O=C(Cc1ccc(F)cc1)NCc1cccnc1`, the “hERG current change (%, negative = inhibition) at 10uM” value is reported as 9.56%.
With `Clc1nc(-c2ccccc2)cc(-c2ccccc2)n1` the “hERG current change (%, negative = inhibition) at 10uM” value was 5.42%.
`COCCn1c(=O)[nH]c2cc(C(=O)NC(C)C)ccc2c1=O` was tested, and the “hERG current change (%, negative = inhibition) at 10uM” value was 22.8%.
For `C=C(C)Cn1cnc2c(oc3nc4c(cc32)CCCC4)c1=O`, the “hERG current change (%, negative = inhibition) at 10uM” value was -6.04%.
In the case of `C=CC(=O)NC(C)(C)CCN1CCOCC1`, the “hERG current change (%, negative = inhibition) at 10uM” value is reported as 16.7%.
In the case of `O=C1N/C(=N/O)S/C1=C/c1cccc([N+](=O)[O-])c1`, the “hERG current change (%, negative = inhibition) at 10uM” value is reported as 20.4%.
For `Cc1ccc(NC(=O)CCNS(=O)(=O)c2cccc3nsnc23)cc1F`, the “hERG current change (%, negative = inhibition) at 10uM” value was -3.43%.
`CC(=O)c1c(C)n(-c2cccc(Cl)c2)c2ccc(O)cc12` was tested, and the “hERG current change (%, negative = inhibition) at 10uM” value was 1.33%.
In the case of `CC1CC(=O)Nc2ccccc2N1C(=O)COc1ccc2cc(Br)ccc2c1` (centres unmarked), the “hERG current change (%, negative = inhibition) at 10uM” value is reported as 0.55%.
In the case of `CC(=O)N1C(=O)C2(C(C#N)=C(N)Oc3n[nH]c(-c4ccccn4)c32)c2ccccc21` (centres unmarked), the “hERG current change (%, negative = inhibition) at 10uM” value is reported as 4.71%.
With `Br.Cc1ccc(C(=O)CN(Cc2ccccc2)C2=NCCS2)cc1` the “hERG current change (%, negative = inhibition) at 10uM” value was -27.3%.
`COc1ccccc1OCc1ccc(C(=O)NCCN(C)C)o1` was tested, and the “hERG current change (%, negative = inhibition) at 10uM” value was 0.382%.
For `COc1ccc(CN2CCOCC2)cc1Br`, the “hERG current change (%, negative = inhibition) at 10uM” value was -12%.
For `COc1cc(C)c(CN2CCCCC2CO)cc1C` (centres unmarked), the “hERG current change (%, negative = inhibition) at 10uM” value was -0.531%.
In the case of `O=S(Cc1ccc(Cl)cc1)CC(O)COCc1ccc(Cl)cc1` (centres unmarked), the “hERG current change (%, negative = inhibition) at 10uM” value is reported as -4.9%.
For `Cc1ccc(NC(=O)COc2ccc(CCO)cc2-n2nc3ccccc3n2)cc1C`, the “hERG current change (%, negative = inhibition) at 10uM” value was 6.89%.
With `COc1ccc2nc3oc(C(=O)NCc4cccs4)cc3cc2c1` the “hERG current change (%, negative = inhibition) at 10uM” value was -8.02%.
`CN(/N=C/c1ccncc1)C1=NS(=O)(=O)c2ccccc21` was tested, and the “hERG current change (%, negative = inhibition) at 10uM” value was 2.63%.
For `CCn1c(O)c(C=NC2CCCC(C)C2C)sc1=S` (centres unmarked), the “hERG current change (%, negative = inhibition) at 10uM” value was 27.4%.
`CCn1c(SCC(=O)Nc2ccccc2C(=O)OC)nnc1-c1ccoc1C` was tested, and the “hERG current change (%, negative = inhibition) at 10uM” value was -42.4%.
`Cc1ccc(CNC(=O)c2cc3c(-c4ccc(Cl)cc4)nn(C)c3s2)o1` was tested, and the “hERG current change (%, negative = inhibition) at 10uM” value was -8.27%.
For `CN(CC(=O)NCc1cccnc1)S(=O)(=O)c1cc(Cl)ccc1Cl`, the “hERG current change (%, negative = inhibition) at 10uM” value was -15.2%.
`CCn1cc(S(=O)(=O)Nc2ccc(C)c(Cl)c2)cn1` was tested, and the “hERG current change (%, negative = inhibition) at 10uM” value was -12.5%.
For `CN1CCN(C(=O)/C=C/c2cn(-c3ccccc3)nc2-c2ccc3c(c2)OCCO3)CC1.Cl`, the “hERG current change (%, negative = inhibition) at 10uM” value was -31%.
